# Measured values reported in the BET-seq Pho4 binding data (Le et al. 2018).
# This is one part of the list. The energies were worked out here from pooled read counts, against the library average; single values are noisy.
# Biological target: T1, Pho4 (S. cerevisiae) (UniProt P07270)
# T1 sequence: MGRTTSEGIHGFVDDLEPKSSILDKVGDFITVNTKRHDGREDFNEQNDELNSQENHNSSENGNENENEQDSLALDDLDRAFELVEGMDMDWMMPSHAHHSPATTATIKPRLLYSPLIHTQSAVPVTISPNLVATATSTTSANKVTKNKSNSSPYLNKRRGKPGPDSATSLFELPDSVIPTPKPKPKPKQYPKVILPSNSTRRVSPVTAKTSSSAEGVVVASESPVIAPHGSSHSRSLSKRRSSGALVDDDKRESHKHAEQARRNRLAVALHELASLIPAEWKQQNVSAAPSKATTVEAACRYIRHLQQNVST
# Experiment: relative binding free energy (BET-seq); higher = weaker binding
# Details: reference: library average
row,Sequence,relative binding free energy [kcal/mol]
1,TATATCACGTGTGCAG,-0.01
2,GGTTACACGTGGATGG,0.15
3,AGATTCACGTGATTTT,0.22
4,GGTGTCACGTGATCAG,0.04
5,CGTTTCACGTGAGTAG,0.39
6,GTTTCCACGTGTGGAT,0.19
7,GCTGACACGTGTGTAG,0.07
8,GCTAGCACGTGAGGAT,0.26
9,CGTTACACGTGAAGGG,0.34
10,GCTGTCACGTGTTTGT,0.03
11,GGTGACACGTGCAGGC,0.02
12,TGTCGCACGTGATGTA,0.07
13,TTTCTCACGTGATTTA,0.3
14,TATTACACGTGTGTCG,0.13
15,GAGGGCACGTGAGAGT,0.17
16,GTGCGCACGTGGTTGT,-0.24
17,AGAGTCACGTGGGTCA,-0.04
18,GAACGCACGTGGGATG,-0.05
19,CGAATCACGTGGTTGT,0.22
20,CGTTTCACGTGCGTGA,0.1
21,TGAGTCACGTGCGGTG,0

row,Sequence,relative binding free energy [kcal/mol]
1,CGGGTCACGTGGATAA,0.06
2,GTTCGCACGTGGTTAT,-0.07
3,TCTGTCACGTGTTACT,0.09
4,GTGTTCACGTGGTTAC,0.27
5,TGTTTCACGTGAGACG,0.28
6,GGACGCACGTGATGTT,0.12
7,TTAAACACGTGGGTGG,-0.19
8,TGTGCCACGTGGATTG,-0.15
9,TCGGCCACGTGGGTGG,-0.26
10,CCGGTCACGTGTTAGG,0.18
11,GTGGTCACGTGGTGGA,0.17
12,TGAGGCACGTGGGTCA,-0.26
13,GTCGGCACGTGGCATG,-0.17
14,TTCTGCACGTGGGTGC,-0.24
15,AGTGACACGTGTGCTA,-0.08
16,TGTTCCACGTGGTGGT,0.03
17,GGAGACACGTGTTTAT,0.04
18,ATAGTCACGTGGGTTT,-0.03
19,GGTAGCACGTGTGTGA,-0.06
20,GCGGACACGTGGGAGT,-0.04
21,TTGTCCACGTGGAGAG,0.12

row,Sequence,relative binding free energy [kcal/mol]
1,CGGATCACGTGAGGGG,0.33
2,TACCGCACGTGGTGGT,-0.12
3,GTCGACACGTGGGTCT,0.02
4,AGAGGCACGTGTTTGT,-0.15
5,TGAGACACGTGCATGT,0.04
6,ATAGACACGTGTTGAT,-0.06
7,GGCTCCACGTGGGCGG,-0.14
8,GTGGTCACGTGTCGCA,0.16
9,ACGTGCACGTGAGTAT,0.09
10,TGTGCCACGTGAGTAG,-0.01
11,AATCGCACGTGTTTAT,0.04
12,ACTTTCACGTGCGGGT,0.27
13,CTGGGCACGTGAAAGG,0.24
14,ACGGTCACGTGGGTGC,-0.03
15,TGTCTCACGTGTTGGT,0.31
16,TAGGTCACGTGTGGGT,0.26
17,ATTGCCACGTGGAGGG,-0.07
18,AAGCTCACGTGGGGAT,0.15
19,AGTAACACGTGTTATG,0.06
20,TTGGACACGTGCGGTA,-0.08
21,GGTGACACGTGCTGAG,-0.05
